{"source": "PubChem BioAssay AID485364", "about": "(National Center for Advancing Translational Sciences (NCATS), 2010)", "note": "The whole screen tested about 360,000 compounds, of which about 11,000 (3.1%) were called active. This list was built around the results that the source calls inconclusive (neither active nor inactive); the mix of calls is not that of the screen. The call rests on the fitted dose curve; in most records, active means well fitted inhibition curve with a large enough effect; inconclusive means small, poorly fitted or top-dose-only effect; inactive means no such curve, though single readings can be large or run the other way. Potencies of inconclusive entries are left out as doubtful fits. Potency means the concentration at half of the fitted maximal effect; tags describe the fitted curve by direction and shape."}
{"molecular_target": "Schistosoma mansoni thioredoxin glutathione reductase (TGR) (UniProt Q962Y6)", "assay": "qHTS Assay for the Inhibitors of Schistosoma Mansoni Peroxiredoxins; further: nearly all actives have a fitted effect of over 60% in size", "conditions": "purified TGR, DTNB reduction, TNB absorbance 405 nm; series mostly up to 114 µM", "in_short": "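First, TGR (20 nM dispensed) and NADPH were mixed with compound. Second, a 15 min room-temperature incubation followed. Third, further NADPH and then DTNB were added to start the reaction. Finally, TNB absorbance was monitored kinetically.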"}
{"compound": "N#CC(C#N)=NNc1ccc(S(N)(=O)=O)cc1", "Potency": "inconclusive [inhibitor, partial curve]"}
{"compound": "Cc1cc(C)c2c(C)c(C(=O)N3CCC(c4nc5ccccc5s4)CC3)oc2c1", "Potency": "inconclusive [inhibitor, full curve, poor fit]"}
{"compound": "CCc1nnc(NS(=O)(=O)c2ccc(NC(=S)NC(=O)c3ccc(OC)cc3)cc2)s1", "Potency": "active: 39.8 µM"}
{"compound": "CCOC(=O)c1cc(C#N)c(Oc2cccc(C(F)(F)F)c2)nc1-c1ccccc1", "Potency": "inactive"}
{"compound": "O=C(O)c1cccc(NC(=O)c2ccc(CN3C(=O)c4ccccc4C3=O)cc2)c1", "Potency": "inconclusive [inhibitor, partial curve, poor fit]"}
{"compound": "O=C(Cc1sc(Nc2ccccc2)nc1-c1ccccc1)NCc1ccccn1", "Potency": "active: 25.1 µM"}
{"compound": "Cc1ccc(/C=N/N(Cc2ccccc2)c2ccccc2)o1", "Potency": "inconclusive [inhibitor, partial curve]"}
{"compound": "O=C1C(Cl)=C(N2CCOCC2)C(=O)N1c1cccc(Cl)c1", "Potency": "inconclusive [inhibitor, partial curve]"}
{"compound": "COc1ccc(C(=O)Nc2ccccc2C(=O)Nc2cccc(C)n2)cc1", "Potency": "inactive"}
{"compound": "Nc1cc(=O)[nH]n1C1CCN(c2ccccc2)CC1", "Potency": "inconclusive [inhibitor, full curve, poor fit]"}
{"compound": "COc1cc2cc(CNc3ccc(C)cc3)c(=O)n(CC(=O)Nc3ccc(C(C)C)cc3)c2cc1OC", "Potency": "inactive"}
{"compound": "c1ccc(CNC2=NCCS2)cc1", "Potency": "inactive"}
{"compound": "CC/C=C/C(=O)N1CC2(CC(c3cccc(NC(=O)CC)c3)=NO2)C[C@H]1C(N)=O", "note": "(some centres undefined)", "Potency": "inconclusive [inhibitor, partial curve]"}
{"compound": "Cc1cccc(C(=O)Nc2ccc(C(=O)N/N=C/c3ccc(C)o3)cc2)c1", "Potency": "inconclusive [inhibitor, partial curve]"}
{"compound": "CCOc1ccc(NC(=O)Nc2cc(C(C)C)c(O)cc2C)cc1", "Potency": "inconclusive [inhibitor, partial curve]"}
{"compound": "Cc1cccc(N2C(=O)CS(=O)(=O)C23C(=O)N(C)c2ccccc23)c1", "note": "(centres undefined)", "Potency": "inactive"}
{"compound": "NC(=O)/C(=C/c1ccco1)NC(=O)/C=C/c1ccccc1", "Potency": "inconclusive [inhibitor, partial curve]"}
{"compound": "Brc1c(-c2ccc3c(c2)OCO3)nc2ncccn12", "Potency": "inactive"}
{"compound": "Cc1ncc(COC(=O)C(C)C)c2cc(C(=O)Nc3ccccc3C(F)(F)F)c(=O)oc12", "Potency": "inactive"}
{"compound": "Cn1c(=O)n(Cc2ccco2)c(=N)c2c3c(sc21)CCC3", "Potency": "inconclusive [inhibitor, full curve, poor fit]"}
{"compound": "CC1(CCc2ccc3c(c2)OCO3)NC(=O)c2ccccc2N1", "note": "(centres undefined)", "Potency": "inconclusive [inhibitor, full curve, poor fit]"}
{"compound": "CCOC(=O)c1nc(N2CCN(C(=O)OCC)CC2)c2c3c(sc2n1)CCCC3", "Potency": "inconclusive [inhibitor, partial curve]"}
{"compound": "COc1ccc(CSc2nc3ccccc3c(=O)n2CCCN2CCOCC2)cc1F", "Potency": "inactive"}
{"compound": "CC1=C(C(N)=O)C(c2cccc(F)c2)n2nc(SCc3ccccc3)nc2N1", "note": "(centres undefined)", "Potency": "inconclusive [inhibitor, single point]"}
{"compound": "Nc1c(NC2CCCCC2)c2ccccc2oc1=O", "Potency": "inactive"}
{"compound": "CCc1cc2c(=O)c(-c3cnn(-c4ccccc4)c3)coc2c(CN2CCOCC2)c1O", "Potency": "inconclusive [inhibitor, partial curve]"}
{"compound": "C#CCOC(=O)CCCC(=O)Nc1ccccc1OC", "Potency": "inconclusive [inhibitor, single point]"}
{"compound": "CCc1ccccc1S(=O)(=O)Cc1ccc(C(=O)NCCc2ccccc2)o1", "Potency": "inconclusive [inhibitor, full curve, poor fit]"}
{"compound": "Cc1cccc(NC(=S)N2CCC(N(C)CC3CCCO3)CC2)c1", "note": "(centres undefined)", "Potency": "inconclusive [inhibitor, partial curve]"}
{"compound": "COC(=O)C1=C(C)NC(C)=C(C(=O)OC)C1c1cc2ccc(C)cc2[nH]c1=O", "Potency": "inconclusive [inhibitor, full curve, poor fit]"}
{"compound": "CCCCn1c(=O)[nH]c(=O)c2c1nc(-c1ccc(-c3ccccc3Br)o1)n2CC", "Potency": "active: 12.6 µM"}
{"compound": "CCCOc1ccc(N2C(=O)CC(N(CCCO)C(=O)CC)C2=O)cc1", "note": "(centres undefined)", "Potency": "inconclusive [inhibitor, partial curve]"}
{"compound": "COc1ccccc1C(CC(=O)Nc1ccc(Cl)cc1)c1ccc(OC(C)C)cc1", "note": "(centres undefined)", "Potency": "inactive"}
{"compound": "CCN1CCN(C2=C(NS(=O)(=O)c3ccccc3)C(=O)c3ccccc3C2=O)CC1", "Potency": "inconclusive [inhibitor, partial curve]"}
{"compound": "NC(=S)N(c1ccccc1)c1ccccc1", "Potency": "inconclusive [inhibitor, full curve]"}
{"compound": "CCn1nc(C)c(CN2CCc3c([nH]c4ccccc34)C2c2ccc(F)c(OC)c2)c1C", "note": "(centres undefined)", "Potency": "inactive"}
{"compound": "COC(=O)CCCC1=CC2=CC(=O)C(C)(OC(=O)CCc3ccccc3)C(=O)C2=CO1", "note": "(centres undefined)", "Potency": "inconclusive [inhibitor, partial curve]"}
{"compound": "Cc1cc(C)n(CC(=O)O)c(=O)c1[N+](=O)[O-]", "Potency": "active: 39.8 µM"}
{"compound": "CCn1ccc2cc(S(=O)(=O)N3CCC(C(=O)NCCOC)CC3)ccc21", "Potency": "inconclusive [inhibitor, single point]"}
{"compound": "CC(C)(C)c1ccc(C(=O)N2CC(=O)Nc3ccc(F)cc3C2c2ccc(F)cc2)cc1", "note": "(centres undefined)", "Potency": "inactive"}
{"compound": "O=C(C1=C[C@H](C2CC2)C[C@H](OCCCCO)O1)N1CCN(Cc2ccccc2)CC1", "Potency": "active: 25.1 µM"}
{"compound": "Cc1[nH][nH]c(=O)c1C(c1cc(Br)ccc1O)c1c(C)[nH][nH]c1=O", "Potency": "inconclusive [inhibitor, full curve, poor fit]"}
{"compound": "C/C=C(/C)C(=O)Nc1cccc(C2=NOC3(C2)C[C@@H](C(N)=O)N(C(=O)/C=C/CC)C3)c1", "note": "(some centres undefined)", "Potency": "inconclusive [inhibitor, partial curve]"}
{"compound": "COc1cc(C2/C(=C(\\O)c3cc(C)ccc3C)C(=O)C(=O)N2CCN(C)C)ccc1O", "note": "(centres undefined)", "Potency": "inconclusive [inhibitor, full curve]"}
